The record followed here is the RNAGym collection of RNA variant scans (doi:10.7554/elife.90254).

Read counts are not given, so values of variants with three or more changes are uncertain.

B1: LINE1-mini (parent)
chain: GGCAGAGCUCAACACAGCGUGGCAAAGUGGCUGUGGCUAGACUGCC

The data set covers variants of B1. The experiment in a line: self-cleavage, relative activity (ratio to wild type); higher = more cleavage; in vitro, sequencing; the parent is a self-cleaving ribozyme.
With C8A C13A A14U G17A G27A U38A, the self-cleavage stood at 0.17.
To G7U A16U C46A belongs 0.05.
To G7C G22A G35C C45G belongs 0.04; to C8A A16G C46A, 0.04.
In the case of G7C U9A G35A it was 0.06.
In the case of G7U C23A A25G C37U A39C, the self-cleavage is 0.01.
In the case of C8A A16U A24C it was 0.13; in that of C8A C15U G27U G33A A39C, 1.
In the case of G7C U9G A12U C13A A16G C18U it was 0; in that of C8A A24C G36A, 0.26.
To G7U C10U C13A G19C A25U U38G A41U belongs 0.01.
As to G7U G29A G44A, the self-cleavage amounted to 0.4.
Regarding G7U C23U U32A, the self-cleavage was determined as 0.11.
In the case of G7U G22U G29U G35U C45G C46U it was 0.1; in that of G7C G19C G33U C37U, 0.08.
To G7U G27U U32A C37G G40C belongs 0.05.
To G7C G30A C42A belongs 0.05; to G7U C8A A14C G19A G29U C37A, 0.09; to C8A A12C G21U C42G, 0.15.
Take C8A A14G G33C A39G: the self-cleavage amounted to 0.02.
In the case of C8A A24C A26U U38A it was 0.21; in that of G7U G21U G40U, 0.13.
For the variant G7U A24G A26C G27A G30C, the self-cleavage is 0.02.
Take C8A A16G G35U: the self-cleavage turned out to be 0.19.
In the case of G7U A16U A24U G27U G36C A41G it was 0.11; in that of G7U A16G U28G, 0.05.
In the case of C8A A16U C23G C37U C46G, the self-cleavage was 0.34.
For C8A A11C C37A, the self-cleavage stood at 0.01.
For the variant G7U C8G U9A U38A, the self-cleavage came out at 0.16.
For G7U C8A U38A C46U, the self-cleavage came out at 0.13.
In the case of C8A C15A G17C A24G C31A G40C it was 0.01.
Take G7U U28C G44A: the self-cleavage came out at 0.2.
In the case of C8A C10A A26U G40A it was 0.01; in that of G7C C23G U38C G44C C46A, 0.07; in that of G7U C10A C15U C23U U32C G33C, 0.03.
To C8A A11G G35A belongs 0.04; to G7U A11C C13U C18U U20G A41G, 0.01; to G7C G17U A39U, 0.01.
In the case of C8A C18A G22C G40A A41G it was 0.58; in that of C8A C13A G29A, 0.15.
For the variant G7U A14C G22U G40A, the self-cleavage was 0.05.
To G7U G17A C18A U20A A26U G30A belongs 0.04; to G7U C10A C42U G44A, 0.03.
In the case of G7U A24G A26C U28A C31A it was 0.02; in that of C8A C10G C15G, 0.03; in that of G7C G30U U34C U38A A41G, 0.03.
To G7U U9C C13U belongs 0.03.
G7U C15U A24C G44A: the self-cleavage came to 0.07.
In the case of G7U A14U U43A it was 0.21; in that of C8A C10A C23U C46U, 0; in that of G7C G22A G29A G35U, 0.09.
To C8A A11C A26G belongs 0.01; to G7U C15U U20G U32G G36A, 0.39; to G7U C15A C42A C45G, 0.4.
Turning to G7U C8A U20C, the self-cleavage is 0.05.
In the case of C8A C10G U28A C46A, the self-cleavage stood at 0.03.
In the case of C8A C10U G19C U32C it was 0.06; in that of G7U C23G A26U G29U, 0.02; in that of G7U C37A A41G, 0.03.
In the case of G7U G17A C18G G19C U20G G21U C23G A24C G27A it was 0.06.
As to C8A C10A U28A G30A C46A, the self-cleavage is 0.01.
In the case of G7U A14U G33A C37A it was 0.01.
To G7U C8A A25C G27U belongs 0.28; to C8A A12C U32A G33A, 0.03; to G7U G19A U34C, 0.03.
As to G7C G27A C45A C46A, the self-cleavage amounted to 0.03.
To G7C G21A C46A belongs 0.15.
Take C8A A25U G33U U43G: the self-cleavage turned out to be 0.
To G7U C18U C37G belongs 0.03; to C8A C18A A26G, 0.09; to C8A A12G C13A C23U G36U, 0.06.
In the case of G7U G21C G22A it was 0.04.
In the case of G7U U9A C37G A39U it was 0.01.
With G7C G21A A24C, the self-cleavage was determined as 0.2.
G7C G19A G22A A25G G27U: the self-cleavage amounted to 0.02.
In the case of C8A A14G G17U C23G it was 0.07; in that of G7C G22A G30A G33U, 0.05; in that of G7U G35A G36U C37U, 0.04.
In the case of G7C U20G U34A G40C it was 0.01; in that of G7U G17A C31U U43C, 0.08; in that of G7U C15A A25U G29U U32G C37U A39U, 0.04.
To G7U C10A G22C A26G C31G U32A belongs 0.01; to G7U A11U G40C, 0.01.
Take C8A C13A C18G A24C G36U: the self-cleavage turned out to be 0.27.
Regarding G7U A11G A39U, the self-cleavage amounted to 0.
To G7U C8U G17A belongs 0.3; to G7U C31A G40C U43C G44C, 0.05; to G7U U9C C15U A16C C23U, 0.08.
To C8A C18G A41U belongs 0.03; to G7C C23U U32A, 0.03.
Take C8A A12U C37U: the self-cleavage was 0.09.
In the case of C8A C10A C15U G27U G30C G35A it was 0.04; in that of G7U G27U A41G G44C, 0.22; in that of G7U A12U G17U, 0.03.
To G7U G44A C45G belongs 0.12.
To G7U A14C A25G C42G belongs 0.08; to C8A A16U G17U, 0.06.
C8A A11C A16C G22A A25G G29U U32A A41G: the self-cleavage is 0.
To G7U C13U U38A belongs 0.01; to G7U A26C G44C, 0.03.
In the case of C8A C10A U32G it was 0.02.
In the case of G7C G21U A39G it was 0; in that of G7U C10U A12G C13U G27A, 0.04; in that of C8A C13A A16G G19A, 0.04.
In the case of G7U C31A G36U, the self-cleavage came out at 0.04.
In the case of G7U C13U U20A U32G C37A it was 0.08.
In the case of G7U A14U U20G A24C A41G it was 0.03; in that of G7U G17A A25C G27A G35A, 0.03.
In the case of G7C U20G C31A G33A C45A it was 0.01; in that of G7U A12G G36A, 0.12.
G7U U9G C13U G22C G27C G33U C42G C46U: the self-cleavage is 0.
In the case of C8A C10U G19C G44C it was 0.03; in that of G7U C13A C15A C37G, 0.1.
In the case of G7C G17C G21C A26G G30C it was 0.08.
As for C8A A16G C23A U38A, the self-cleavage worked out at 1.41.
To G7U C15A U20A C46G belongs 0.1.
To G7U A11G C15G belongs 0.01.
In the case of G7U U20G G30A U38A it was 0.01; in that of G7U C10A C42U, 0.03.
As for C8A C13G A16G A39U, the self-cleavage amounted to 0.1.
To C8A A12U C13U C23G belongs 0.82; to G7U U9G C10G G44C C45G, 0.01.
In the case of G7U G17C G21U C45U it was 0.33; in that of C8A C13G G29C C31U G40U U43G, 0.49.
In the case of G7U C10A G27U U34C it was 0.02; in that of G7U U32A A41U U43C, 0.68.
On to G7C G21C C45G, for which the self-cleavage is 0.05.
In the case of C8A A26C U28G U32C it was 0.09.
Regarding G7U C18G U38A, the self-cleavage came to 0.02.
For G7U C13A G22A G27A U38G, the self-cleavage was determined as 0.02.
As for G7C C31G A41U, the self-cleavage came out at 0.07.
To G7C G30A U43A belongs 0.34; to G7U U9A A25C C45U, 0.07; to C8A C13A A16G U20G G35A, 0.05.
For G7U C8G C13A, the self-cleavage came out at 0.38.
In the case of G7U G22A C31U A39G it was 0.02; in that of C8A A14C C23A U28G U34G C45U, 0.02; in that of G7U G21C U28C, 0.03.
Take G7U A12U C18A U34C: the self-cleavage came to 0.12.
Consider C8A A11G U32G, for which the self-cleavage came out at 0.03.
In the case of C8A C13A A14U C45U it was 0.31; in that of G7U A12U C42G, 0.
To G7U U32C G40A belongs 0.06; to G7U G27A C37A, 0.02; to G7C G21U G40U, 0.01.
For G7U C15G G19U G35A, the self-cleavage was determined as 0.01.
To C8A C15U A25C G40U belongs 0.15; to C8A A16U A26U, 0.02.
Regarding G7U G19A U20G U28G U32A, the self-cleavage was 0.01.
To G7U G30U G36C belongs 0.04; to G7U A11U A16U, 0.04.
To G7U C18A U28A C45A belongs 0.02; to C8A A14U G27U, 0.02.
As for C8A A14C G27A C42U, the self-cleavage amounted to 0.16.
In the case of C8A A16U G40U it was 0.25.
To C8A C10U U28A C46A belongs 0.03; to G7U A14U U32A G33U, 0.01.
To G7U U9A A11C belongs 0.03; to C8A A11C A25G, 0.04; to G7C U9C C42A, 0.01.
On to C8A A16G G22U C37G U38C C46G, for which the self-cleavage was found to be 0.01.
Consider G7C G17A C46A, for which the self-cleavage amounted to 0.06.
To C8A A16C C23U G30U C46A belongs 0.28; to G7U U20C A24G, 0.09; to C8A A14U A16U G35C A39C G44C C46A, 0.08.
To G7U G22U G36U belongs 0.07.
Turning to C8A A26U U34A, the self-cleavage worked out at 0.05.
